The values below come from the BET-seq Pho4 binding data (Le et al. 2018).

Some of the results follow. The energies were worked out here from pooled read counts, against the library average; single values are noisy.

The target in the test is T1, Pho4 (S. cerevisiae) (UniProt P07270).
T1 sequence: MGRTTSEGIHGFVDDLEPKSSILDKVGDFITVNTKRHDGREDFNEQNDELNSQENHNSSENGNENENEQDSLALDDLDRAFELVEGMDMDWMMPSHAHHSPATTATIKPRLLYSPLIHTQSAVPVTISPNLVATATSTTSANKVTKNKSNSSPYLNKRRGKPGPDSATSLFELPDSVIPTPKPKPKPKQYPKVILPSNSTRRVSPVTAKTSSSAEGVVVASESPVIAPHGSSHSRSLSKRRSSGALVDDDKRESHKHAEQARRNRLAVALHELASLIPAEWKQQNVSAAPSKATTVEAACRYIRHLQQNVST
Nature of the test: relative binding free energy (BET-seq); higher = weaker binding. Conditions: reference: library average.
In the case of AAGGTCACGTGGCGGT, the “relative binding free energy” value turned out to be 0.11 kcal/mol.

As for GATGGCACGTGCTTTA, the “relative binding free energy” value was found to be 0.06 kcal/mol.

TGAATCACGTGTTATG: the “relative binding free energy” value worked out at 0.24 kcal/mol.

In the case of TAACGCACGTGTTTTA, the “relative binding free energy” value is -0.03 kcal/mol.

As for TGTATCACGTGAAGTT, the “relative binding free energy” value amounted to 0.32 kcal/mol.

On to AGTCTCACGTGGGTGG, for which the “relative binding free energy” value is 0.07 kcal/mol.

In the case of TGTATCACGTGATTCT, the “relative binding free energy” value came out at 0.08 kcal/mol.

ATTGTCACGTGGCCGT: the “relative binding free energy” value is -0.06 kcal/mol.

Take TTATCCACGTGAGTTA: the “relative binding free energy” value was found to be 0.14 kcal/mol.

As for TCGTTCACGTGATATG, the “relative binding free energy” value came to 0.49 kcal/mol.

Regarding TATAACACGTGTAGTA, the “relative binding free energy” value was 0.05 kcal/mol.

With TTGGACACGTGAGGCA, the “relative binding free energy” value stood at 0.12 kcal/mol.

For the sequence TTGTGCACGTGTCGCT, the “relative binding free energy” value is -0.07 kcal/mol.

For the sequence GTACGCACGTGGTGTG, the “relative binding free energy” value is -0.12 kcal/mol.

Regarding CTTAACACGTGGGTTG, the “relative binding free energy” value was -0.13 kcal/mol.

GGGGCCACGTGCTGTT: the “relative binding free energy” value was -0.23 kcal/mol.

Take GGTGTCACGTGGTCCA: the “relative binding free energy” value came out at 0.16 kcal/mol.

Turning to TAGGTCACGTGTGATG, the “relative binding free energy” value came to 0.21 kcal/mol.

Take AGAATCACGTGGGACT: the “relative binding free energy” value was determined as 0.16 kcal/mol.

For the sequence GAGCGCACGTGTGGAG, the “relative binding free energy” value came to 0.06 kcal/mol.

For the sequence TCTGGCACGTGAAGGT, the “relative binding free energy” value was found to be 0.02 kcal/mol.

Take CTTGGCACGTGTTTGT: the “relative binding free energy” value was -0.09 kcal/mol.

With TTGAGCACGTGTGTCT, the “relative binding free energy” value is 0 kcal/mol.

On to GGGAGCACGTGATGGG, for which the “relative binding free energy” value was determined as 0.05 kcal/mol.

In the case of TTTATCACGTGCAGTT, the “relative binding free energy” value was 0.03 kcal/mol.

In the case of TGGGACACGTGTTCTG, the “relative binding free energy” value was -0.04 kcal/mol.

With TTGAGCACGTGATGAT, the “relative binding free energy” value is 0.09 kcal/mol.

As to CTTGACACGTGTTGTT, the “relative binding free energy” value is -0.08 kcal/mol.

As to AGAGACACGTGTTGCG, the “relative binding free energy” value turned out to be 0.11 kcal/mol.

As to AGGTGCACGTGAAAAT, the “relative binding free energy” value amounted to 0.35 kcal/mol.

Regarding GGTATCACGTGTTGCA, the “relative binding free energy” value was determined as 0.02 kcal/mol.

AGTTTCACGTGATATT: the “relative binding free energy” value came to 0.14 kcal/mol.

Take TATAACACGTGTGTGT: the “relative binding free energy” value amounted to 0.09 kcal/mol.

With CTATTCACGTGGCGTT, the “relative binding free energy” value was 0.17 kcal/mol.

For the sequence CTATTCACGTGTGATT, the “relative binding free energy” value was found to be 0.27 kcal/mol.

For the sequence CGGGTCACGTGTATTA, the “relative binding free energy” value is 0.12 kcal/mol.

Consider AAAATCACGTGTTGGA, for which the “relative binding free energy” value turned out to be 0.14 kcal/mol.

As to AGGGACACGTGTAGGA, the “relative binding free energy” value was found to be 0.05 kcal/mol.

As to TGCGTCACGTGGCAGG, the “relative binding free energy” value is -0.2 kcal/mol.

GGGCCCACGTGGGCGG: the “relative binding free energy” value is -0.28 kcal/mol.

In the case of TGCAACACGTGGTAGG, the “relative binding free energy” value was -0.01 kcal/mol.

For the sequence CCGGGCACGTGTTGTA, the “relative binding free energy” value was -0.06 kcal/mol.

Regarding ATGGCCACGTGTTCGG, the “relative binding free energy” value is -0.09 kcal/mol.

Consider ATTTGCACGTGGCGCG, for which the “relative binding free energy” value was -0.21 kcal/mol.

As for GAGGTCACGTGTGCTT, the “relative binding free energy” value is 0.27 kcal/mol.

With AGAGGCACGTGTAATA, the “relative binding free energy” value was -0.08 kcal/mol.

On to TGATGCACGTGTTTGG, for which the “relative binding free energy” value was -0.11 kcal/mol.

On to GGCATCACGTGGGCGT, for which the “relative binding free energy” value was determined as 0.05 kcal/mol.

As for GCCGTCACGTGGATGG, the “relative binding free energy” value was determined as 0.13 kcal/mol.

With TGGCGCACGTGTGGCA, the “relative binding free energy” value is -0.01 kcal/mol.

GGGTTCACGTGGTGAT: the “relative binding free energy” value stood at 0.46 kcal/mol.

As to TATATCACGTGGTAGC, the “relative binding free energy” value was 0.09 kcal/mol.

In the case of GTGTGCACGTGGGACA, the “relative binding free energy” value was -0.15 kcal/mol.

TTCTGCACGTGGCGTG: the “relative binding free energy” value was -0.2 kcal/mol.

For TCGGTCACGTGTAATG, the “relative binding free energy” value came out at 0.18 kcal/mol.

Turning to AGCTGCACGTGGGTAG, the “relative binding free energy” value is -0.22 kcal/mol.

In the case of CGGTTCACGTGGGAAG, the “relative binding free energy” value amounted to 0.18 kcal/mol.

Turning to TGGGGCACGTGGTAGG, the “relative binding free energy” value is -0.16 kcal/mol.

With ATGGCCACGTGTGGTG, the “relative binding free energy” value was -0.07 kcal/mol.

As for TATAACACGTGGCAGG, the “relative binding free energy” value stood at 0.04 kcal/mol.

Turning to AGTTCCACGTGTAGAT, the “relative binding free energy” value was 0.34 kcal/mol.

Consider AGTTTCACGTGTGTGT, for which the “relative binding free energy” value was 0.34 kcal/mol.

As to TGTTGCACGTGATGGG, the “relative binding free energy” value was determined as 0.11 kcal/mol.

CGGATCACGTGCGGGA: the “relative binding free energy” value came to 0.18 kcal/mol.

Turning to AGGGTCACGTGGGGGG, the “relative binding free energy” value was 0.03 kcal/mol.

ATTTCCACGTGTTTGA: the “relative binding free energy” value was 0.09 kcal/mol.

For the sequence TTTCGCACGTGGGGGG, the “relative binding free energy” value is -0.09 kcal/mol.

With AGCGGCACGTGATGAG, the “relative binding free energy” value is -0.1 kcal/mol.

With AATGTCACGTGGCGTT, the “relative binding free energy” value was 0.04 kcal/mol.

For the sequence AATTTCACGTGAGTAG, the “relative binding free energy” value turned out to be 0.36 kcal/mol.

For AGGTTCACGTGTCTTG, the “relative binding free energy” value was found to be 0.25 kcal/mol.

For GGTAGCACGTGTATGC, the “relative binding free energy” value is -0.07 kcal/mol.

Regarding GTTGTCACGTGGGTTG, the “relative binding free energy” value turned out to be 0.06 kcal/mol.

In the case of CTTATCACGTGGTAGT, the “relative binding free energy” value is -0.01 kcal/mol.

TTTTGCACGTGATTTT: the “relative binding free energy” value was 0.06 kcal/mol.

For TAGTACACGTGGTCGG, the “relative binding free energy” value is -0.01 kcal/mol.

As to CAGCACACGTGGGTGG, the “relative binding free energy” value is -0.04 kcal/mol.

In the case of TTTTGCACGTGGTACA, the “relative binding free energy” value was -0.11 kcal/mol.

As for GTTGGCACGTGCGATC, the “relative binding free energy” value is 0.14 kcal/mol.

On to GGAACCACGTGTGTGG, for which the “relative binding free energy” value is -0.04 kcal/mol.

As for ACGTACACGTGCGGGT, the “relative binding free energy” value came to 0.02 kcal/mol.

Turning to CGAGGCACGTGAAGGG, the “relative binding free energy” value turned out to be 0.11 kcal/mol.

ATCTACACGTGTGGGG: the “relative binding free energy” value is 0.11 kcal/mol.

Take TTGGTCACGTGGCCTT: the “relative binding free energy” value is 0.02 kcal/mol.

TGGGGCACGTGTGAAA: the “relative binding free energy” value is 0.12 kcal/mol.

On to GGGAGCACGTGGGCCA, for which the “relative binding free energy” value is -0.07 kcal/mol.

As for TCCTGCACGTGGAGGG, the “relative binding free energy” value is 0 kcal/mol.

In the case of TGTGGCACGTGGGTAC, the “relative binding free energy” value is -0.16 kcal/mol.

On to AGTAGCACGTGGCATT, for which the “relative binding free energy” value is -0.14 kcal/mol.

In the case of GGCGGCACGTGAGGGG, the “relative binding free energy” value stood at 0.19 kcal/mol.

TTAATCACGTGTAGGG: the “relative binding free energy” value is 0.13 kcal/mol.

As for CGATGCACGTGGTTGA, the “relative binding free energy” value is -0.14 kcal/mol.

In the case of TGCTGCACGTGTGTTA, the “relative binding free energy” value was 0.07 kcal/mol.

For AGGTGCACGTGGATTA, the “relative binding free energy” value was 0.03 kcal/mol.

On to AGGGTCACGTGTGTAA, for which the “relative binding free energy” value turned out to be 0.06 kcal/mol.

On to TTTCACACGTGAGGGT, for which the “relative binding free energy” value was 0.21 kcal/mol.

For CTGGTCACGTGGGAAT, the “relative binding free energy” value worked out at 0.1 kcal/mol.

For GGTTTCACGTGTTTCT, the “relative binding free energy” value is 0.34 kcal/mol.

Turning to CGTGGCACGTGGTCTT, the “relative binding free energy” value was -0.19 kcal/mol.

Consider GTTGTCACGTGTTTAC, for which the “relative binding free energy” value stood at 0.12 kcal/mol.

On to GTTTTCACGTGCTGCG, for which the “relative binding free energy” value was determined as 0.23 kcal/mol.

In the case of GCTTGCACGTGAGGAG, the “relative binding free energy” value was determined as 0.36 kcal/mol.

GAAGGCACGTGTCGTT: the “relative binding free energy” value was -0.09 kcal/mol.

For TCATGCACGTGGAGGG, the “relative binding free energy” value was -0.09 kcal/mol.

As to GAGCGCACGTGTGGAT, the “relative binding free energy” value is -0.11 kcal/mol.

For TTGATCACGTGATCGT, the “relative binding free energy” value was 0.24 kcal/mol.

On to GATGTCACGTGTTTAG, for which the “relative binding free energy” value was 0.22 kcal/mol.

ATGTTCACGTGGGTCG: the “relative binding free energy” value was 0.21 kcal/mol.

In the case of TGAATCACGTGATGTA, the “relative binding free energy” value was 0.2 kcal/mol.

Regarding TGTTTCACGTGGAGTC, the “relative binding free energy” value worked out at 0.25 kcal/mol.

With GGGGGCACGTGGGCTT, the “relative binding free energy” value is -0.13 kcal/mol.

Take GTTTGCACGTGTGCGA: the “relative binding free energy” value is 0 kcal/mol.

As for TGGGGCACGTGCATAA, the “relative binding free energy” value is -0.23 kcal/mol.

Turning to CTTGTCACGTGGTGAA, the “relative binding free energy” value was 0 kcal/mol.

On to ACGGGCACGTGTTTAG, for which the “relative binding free energy” value was -0.13 kcal/mol.
